The sequences are guide strands of siRNAs; only the seed at positions 2 to 7 varies.
Assays:
GL261 = experiment: cell viability relative to siNT1 (ATP content); H4 human neuroglioma and GL261 mouse glioma; higher = less toxic; conditions: siRNA concentration 25 nM; 96 h; mouse
H4 = experiment: as above; conditions: siRNA concentration 10 nM; 96 h; human
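Also: cells reverse transfected with siRNA duplexes via lipid reagent, ATP read by luminescence, triplicate wells, values scaled to mean viability with non-targeting control siNT1.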

| Sequence | cell viability (GL261) [%] | cell viability (H4) [%] |
| --- | --- | --- |
| UGAUACGACAUGUAAACCA | 18.5 | 110 |
| UGAUACUACAUGUAAACCA | 13.7 | 68 |
| UGAUAGAACAUGUAAACCA | 17.9 | 63.9 |
| UGAUAGCACAUGUAAACCA | 6.25 | 29.8 |
| UGAUAGGACAUGUAAACCA | 23.3 | 80.4 |
| UGAUAGUACAUGUAAACCA | 10.2 | 59.8 |
| UGAUAUAACAUGUAAACCA | 46 | 96.1 |
| UGAUAUCACAUGUAAACCA | 32.8 | 50.3 |
| UGAUAUGACAUGUAAACCA | 41 | 74.5 |
| UGAUAUUACAUGUAAACCA | 23.2 | 67 |
| UGAUCAAACAUGUAAACCA | 55.5 | 71.2 |
| UGAUCACACAUGUAAACCA | 17.3 | 53.6 |
| UGAUCAGACAUGUAAACCA | 38.2 | 56.8 |
| UGAUCAUACAUGUAAACCA | 41.5 | 64.3 |
| UGAUCCAACAUGUAAACCA | 27.3 | 71.6 |
| UGAUCCCACAUGUAAACCA | 29.7 | 65.2 |
| UGAUCCGACAUGUAAACCA | 20.1 | 87.3 |
| UGAUCCUACAUGUAAACCA | 10.1 | 42.6 |
| UGAUCGAACAUGUAAACCA | 51.8 | 65.2 |
| UGAUCGCACAUGUAAACCA | 17.6 | 62.5 |
| UGAUCGGACAUGUAAACCA | 17.3 | 63.7 |
| UGAUCGUACAUGUAAACCA | 22.5 | 74.7 |
| UGAUCUAACAUGUAAACCA | 52.6 | 77.4 |
| UGAUCUCACAUGUAAACCA | 32.1 | 66 |

| Sequence | cell viability (GL261) [%] | cell viability (H4) [%] |
| --- | --- | --- |
| UGAUCUGACAUGUAAACCA | 49.1 | 74 |
| UGAUCUUACAUGUAAACCA | 67 | 61.8 |
| UGAUGAAACAUGUAAACCA | 25.1 | 104 |
| UGAUGACACAUGUAAACCA | 13.2 | 46 |
| UGAUGAGACAUGUAAACCA | 17.2 | 75.4 |
| UGAUGAUACAUGUAAACCA | 12.6 | 54.9 |
| UGAUGCAACAUGUAAACCA | 18.7 | 38.7 |
| UGAUGCCACAUGUAAACCA | 17.2 | 6.29 |
| UGAUGCGACAUGUAAACCA | 11.3 | 78.7 |
| UGAUGCUACAUGUAAACCA | 6.52 | 13.3 |
| UGAUGGAACAUGUAAACCA | 22.9 | 64.9 |
| UGAUGGCACAUGUAAACCA | 14 | 13.3 |
| UGAUGGGACAUGUAAACCA | 14.4 | 42.3 |
| UGAUGGUACAUGUAAACCA | 18.3 | 39.9 |
| UGAUGUAACAUGUAAACCA | 61.7 | 96.6 |
| UGAUGUCACAUGUAAACCA | 40.3 | 53.9 |
| UGAUGUGACAUGUAAACCA | 46 | 87.7 |
| UGAUGUUACAUGUAAACCA | 35.1 | 74.6 |
| UGAUUAAACAUGUAAACCA | 44.4 | 91 |
| UGAUUACACAUGUAAACCA | 34.3 | 63.4 |
| UGAUUAGACAUGUAAACCA | 59.9 | 80.1 |
| UGAUUAUACAUGUAAACCA | 27.5 | 68.1 |
| UGAUUCAACAUGUAAACCA | 45 | 53.6 |
| UGAUUCCACAUGUAAACCA | 22.3 | 44.9 |

| Sequence | cell viability (GL261) [%] | cell viability (H4) [%] |
| --- | --- | --- |
| UGAUUCGACAUGUAAACCA | 23.6 | 55.1 |
| UGAUUCUACAUGUAAACCA | 20.6 | 51.8 |
| UGAUUGAACAUGUAAACCA | 59.8 | 97.5 |
| UGAUUGCACAUGUAAACCA | 32.5 | 39.7 |
| UGAUUGGACAUGUAAACCA | 49.3 | 63.7 |
| UGAUUGUACAUGUAAACCA | 70.8 | 75.4 |
| UGAUUUAACAUGUAAACCA | 46.8 | 63.4 |
| UGAUUUCACAUGUAAACCA | 28.6 | 48.7 |
| UGAUUUGACAUGUAAACCA | 31.6 | 69.4 |
| UGAUUUUACAUGUAAACCA | 35 | 49.3 |
| UGCAAAAACAUGUAAACCA | 56.1 | 118 |
| UGCAAACACAUGUAAACCA | 44.9 | 89.2 |
| UGCAAAGACAUGUAAACCA | 58.3 | 88.2 |
| UGCAAAUACAUGUAAACCA | 55.5 | 75.5 |
| UGCAACAACAUGUAAACCA | 51.2 | 85.8 |
| UGCAACCACAUGUAAACCA | 28.6 | 58.9 |
| UGCAACGACAUGUAAACCA | 61.5 | 95.1 |
| UGCAACUACAUGUAAACCA | 37.9 | 59.9 |
| UGCAAGAACAUGUAAACCA | 62.6 | 84.8 |
| UGCAAGCACAUGUAAACCA | 19.7 | 81.4 |
| UGCAAGGACAUGUAAACCA | 37.3 | 59.8 |
| UGCAAGUACAUGUAAACCA | 45.7 | 85.3 |
| UGCAAUAACAUGUAAACCA | 110 | 121 |
| UGCAAUCACAUGUAAACCA | 52.2 | 56 |

| Sequence | cell viability (GL261) [%] | cell viability (H4) [%] |
| --- | --- | --- |
| UGCAAUGACAUGUAAACCA | 78.2 | 85.3 |
| UGCAAUUACAUGUAAACCA | 46.3 | 57.7 |
| UGCACAAACAUGUAAACCA | 55 | 100 |
| UGCACACACAUGUAAACCA | 27.7 | 54.8 |
| UGCACAGACAUGUAAACCA | 32.1 | 64.6 |
| UGCACAUACAUGUAAACCA | 44.3 | 88.5 |
| UGCACCAACAUGUAAACCA | 27.4 | 65 |
| UGCACCCACAUGUAAACCA | 23.5 | 31 |
| UGCACCGACAUGUAAACCA | 24.7 | 61.6 |
| UGCACCUACAUGUAAACCA | 39.6 | 67 |
| UGCACGAACAUGUAAACCA | 46.9 | 84.5 |
| UGCACGCACAUGUAAACCA | 30.7 | 49.9 |
| UGCACGGACAUGUAAACCA | 48.1 | 59.5 |
| UGCACGUACAUGUAAACCA | 35.4 | 86.8 |
| UGCACUAACAUGUAAACCA | 56.3 | 109 |
| UGCACUCACAUGUAAACCA | 25.9 | 55.8 |
| UGCACUGACAUGUAAACCA | 47.1 | 65.1 |
| UGCACUUACAUGUAAACCA | 36.7 | 58.1 |
| UGCAGAAACAUGUAAACCA | 36.5 | 59.4 |
| UGCAGACACAUGUAAACCA | 16.8 | 55.1 |
| UGCAGAGACAUGUAAACCA | 32.9 | 70.1 |
| UGCAGAUACAUGUAAACCA | 31.3 | 27.7 |
| UGCAGCAACAUGUAAACCA | 31.7 | 63.5 |
| UGCAGCCACAUGUAAACCA | 12.8 | 25.1 |

| Sequence | cell viability (GL261) [%] | cell viability (H4) [%] |
| --- | --- | --- |
| UGCAGCGACAUGUAAACCA | 34.3 | 59.7 |
| UGCAGCUACAUGUAAACCA | 15.6 | 42.9 |
| UGCAGGAACAUGUAAACCA | 28.7 | 39.9 |
| UGCAGGCACAUGUAAACCA | 31.6 | 1.73 |
| UGCAGGGACAUGUAAACCA | 12.9 | 11.6 |
| UGCAGGUACAUGUAAACCA | 19.3 | 2.36 |
| UGCAGUAACAUGUAAACCA | 37.3 | 81.7 |
| UGCAGUCACAUGUAAACCA | 15.9 | 51.2 |
| UGCAGUGACAUGUAAACCA | 56.5 | 81.5 |
| UGCAGUUACAUGUAAACCA | 42.5 | 67 |
| UGCAUAAACAUGUAAACCA | 73.4 | 78.4 |
| UGCAUACACAUGUAAACCA | 25.7 | 66.2 |
| UGCAUAGACAUGUAAACCA | 45.1 | 79.5 |
| UGCAUAUACAUGUAAACCA | 69.1 | 69 |
| UGCAUCAACAUGUAAACCA | 40.1 | 77 |
| UGCAUCCACAUGUAAACCA | 23.9 | 39.5 |
| UGCAUCGACAUGUAAACCA | 27.4 | 103 |
| UGCAUCUACAUGUAAACCA | 44.2 | 75.4 |
| UGCAUGAACAUGUAAACCA | 26.3 | 70.8 |
| UGCAUGCACAUGUAAACCA | 15 | 40.4 |
| UGCAUGGACAUGUAAACCA | 53.7 | 69 |
| UGCAUGUACAUGUAAACCA | 15.4 | 48.4 |

— the supplement of paper PMC8948288
